# Read counts are not given, so values of variants with three or more changes are uncertain.
# B1: CPEB3 Ribozyme (parent)
# chain: UAACAGGGGGCCACAGCAGAAGCGUUCACGUCGCAGCCCCUGUCAGAUUCUGGUGAAUCUGCGAAUUCUGCUGUAUAUCUC
# Variants of: B1
# Test: self-cleavage, relative activity (ratio to wild type); higher = more cleavage; in vitro, sequencing
# How it was run: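 After error-prone PCR and barcoding, CPEB3 ribozyme mutant libraries were transcribed with T7 RNA polymerase at 37°C for 5 hours, then given 15 min with DNase I before an EDTA stop, and they cleaved during both steps. Reverse transcription with template switching preceded Illumina sequencing. Relative activity divides a variant's cleaved/total read fraction by the unmutated ribozyme's. At least 5 reads were required per variant, and three batches were averaged.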
row,Variant,self-cleavage
1,UAACAGGGGGCCCCAGCAGAAGCGUUCACGUCGCUGCCCCUGUCAGAUCCUGGUGGACCUGCGUAUUCUGCUGUAUAUCUC [A13C A35U U49C A56G U58C A64U],0.17
2,UAACAGGGGGCCCCAGCAGAAGCGUUCACGUCGCAGCCCCUGUCGGAUUCUGGUGAAUCUGCGAGUUCUGCUGUGUAUCUC [A13C A45G A65G A75G],0.34
3,UAACAGGGGGCCCCAGCAGAAGCGUUCACGUCGCAGCCCCUGUCGGAAUCCGGUGAAUCUGCGGAUUCUGCAGUAUAUCUC [A13C A45G U48A U51C A64G U72A],0.14
4,UAACAGGGGGCCCCAGCAGAAGCGUUCACGUCGCAGCCCCUGUCGGAUUCAGGAGGAUCUGCGAAUUCUGCUGUAUAUCUC [A13C A45G U51A U54A A56G],0.3
5,UAACAGGGGGCCCCAGCAGAAGCGUUCACGUCGCAGCCCCUGUCUGAUUCAGGUGAGUCUGCGAAUUCUGCUGUAUAUCUC [A13C A45U U51A A57G],0.16
6,UAACAGGGGGCCCCAGCAGAAGCGUUCACGUCGCAGCCCCUGUCUGAUUCUGGUGAAUCUGCGAAUCCUGCUGUAUAUCAC [A13C A45U U67C U80A],0.13
7,UAACAGGGGGCCCCAGCAGAAGCGUUCACGUCGCAGCCCCUGUCAGAUUCUGGUGGACCUGCGAAUUCUGCGGUAUAUCCC [A13C A56G U58C U72G U80C],0.51
8,UAACAGGGGGCCCCAGCAGAAGCGUUCACGUCGCAGCCCCUGUCAGAUUCUGGUGUAUCUGCGAAUUCUGCUGUAUACCUC [A13C A56U U78C],0.75
9,UAACAGGGGGCCCCAGCAGAAGCGUUCACGUCGCAGCCCCUGUCAGAUUCUGGUGAGUCUGCGAAUUCAGCUGUAUAUCUC [A13C A57G U69A],0.53
10,UAACAGGGGGCCCCAGCAGAAGCGUUCACGUCGCAGCCCCUGUCAGAUUCUGGUGAAUCUGCGGAUUCCGCUGUAUACCUC [A13C A64G U69C U78C],0.16
11,UAACAGGGGGCCCCAGCAGAAGCGUUCACGUCGCAGCCCCUGUCAGAUUCUGGUGAAUCUGCGGAUUCUGCCGUAUUCCUC [A13C A64G U72C A77U U78C],0.56
12,UAACAGGGGGCCCCAGCAGAAGCGUUCACGUCGCAGCCCCUGUCAGAUUCUGGUGAAUCUGCGGAUUCUGCUGUACAUCUC [A13C A64G U76C],1
13,UAACAGGGGGCCCCAGGAGGAGCGUCCACGUCGCAGCCCCUGUCAGAUCCUGGUGAGCCUGCGAAUUCUGCUGUAUAUCUC [A13C C17G A20G U26C U49C A57G U58C],0.05
14,UAACAGGGGGCCCCAGUAGAAGCGCUCACGUCGCAGCCCCUGUCAGAUUCUGGUGAAUCUGCGAAUUCUGCUGUAUAUCCC [A13C C17U U25C U80C],0.42
15,UAACAGGGGGCCCCAGCAGAAGAGUUCACGUCGCAGCCCCUGUCGGAUUCAGGUGGAUCUGCGAAUUCUGCUGUAUAUCUC [A13C C23A A45G U51A A56G],0.16
16,UAACAGGGGGCCCCAGCAGAAGUGUUCACGUCGCAGCCCCUGUCAGAUUCUGGCGAAUCUGCGAAUUCUGCAGCAUAUCUC [A13C C23U U54C U72A U74C],0.09
17,UAACAGGGGGCCCCAGCAGAAGCGUUAACGUCGCGGCCCCCGUCAGAUUCUGGUGAAUCUGCGAAUUCUGCUGUAUAUCUC [A13C C27A A35G U41C],0.41

row,Variant,self-cleavage
1,UAACAGGGGGCCCCAGCAGAAGCGUUCACGUUGCGGCCCGUGACAGAUUCUGGCGAACCUGCGAAUUCUGCUGUAUAUCUC [A13C C32U A35G C40G U43A U54C U58C],0.13
2,UAACAGGGGGCCCCAGCAGAAGCGUUCACGUCGCAGCCACUGUCAGAUUCUGGUGAAUCUGCGAAUCCUGCUGUAUAUCUC [A13C C39A U67C],0.03
3,UAACAGGGGGCCCCAGCAGAAGCGUUCACGUCGCAGCCACUGUCAGAUUCUGGUGAAUCUGCGAAUCCUGCUGAAUAUCUC [A13C C39A U67C U74A],0.14
4,UAACAGGGGGCCCCAGCAGAAGCGUUCACGUCGCAGCCCUUGUCAGAUGCUGGUGAGUCUGCGAAUUCUGCUGUAUAUCUC [A13C C40U U49G A57G],0.13
5,UAACAGGGGGCCCCAGCACAAGCGUUCACGUCGCAGCCACUGUCAGAUUCUGGUGAAUCUGCGAAUUCUGCUGUAUAUCUC [A13C G19C C39A],0.29
6,UAACAGGGGGCCCCAGCAGAAGCAUUCACGUCGCAGCCCCCGUCAGAUUCUGGUGUAUCUGCGAAUUCUGCUGUAUUCCUC [A13C G24A U41C A56U A77U U78C],0.13
7,UAACAGGGGGCCCCAGCAGAAGCAUUCACGUCGCAGCCCCUGACAGAUUCUGGUGAAUCUGCGAAUUCUGCUGUAUAUCUC [A13C G24A U43A],0.12
8,UAACAGGGGGCCCCAGCAGAAGCGUUCACGUCACAGCCCCUGUCUGAUUCUGGUGAAUCUGCGAAUCCUGCUGUAAAUCUC [A13C G33A A45U U67C U76A],0.08
9,UAACAGGGGGCCCCAGCAGAAGCGUUCACGUCUCAGCCCCGGUCAGAUUCUGGUGAAUCCGCGAAUUCUGCCGUAUAUCUC [A13C G33U U41G U60C U72C],0.08
10,UAACAGGGGGCCCCAGCAGAAGCGCUCACGUCGCGGCCACUGUCAGAUUCGGUUGAAUCUGCGAAUUCUGCUGUAUAUCUC [A13C U25C A35G C39A U51G G53U],0.02
11,UAACAGGGGGCCCCAGCAGAAGCGCUCACGUCGCAGCCCCUGUCCGACUCUGGUGAAUCUGCGAAUUCAGCUGUACAUCUC [A13C U25C A45C U48C U69A U76C],0.2
12,UAACAGGGGGCCCCAGCAGAAGCGCUCACGUCGCAGCCCCUACCAGAUUCUGGUGAAUCUGCGAAUUCUGCUGUAUAUCUC [A13C U25C G42A U43C],0.23
13,UAACAGGGGGCCCCAGCAGAAGCGCUCACGUCGCAGCCCCUGUCAGAUUCAGGUGAAUCUGCGAACUCUGCUGUAUAUCUC [A13C U25C U51A U66C],0.21
14,UAACAGGGGGCCCCAGCAGAAGCGGUCACGUCGCAGCCCCUGUCAGAUUCUGGUGAAUCUGCGAAUUCCGCUGUAUAACUC [A13C U25G U69C U78A],0.17
15,UAACAGGGGGCCCCAGCAGAAGCGUCCACGUCGCAGCCUAUGUCAGAUUCUGGUGAAUCUGCGGAUUCUGCCGUAUAUCUC [A13C U26C C39U C40A A64G U72C],0.16
16,UAACAGGGGGCCCCAGCAGAAGCGUCCACGUCGCAGCCCCUGUCAGAUUCUGGUGAAUCUGCGAAUUCUGCCGUAUAUCUC [A13C U26C U72C],0.21
17,UAACAGGGGGCCCCAGCAGAAGCGUUCACGCCGCAGCCCCUGUCAGAUUCUGGUGGAUCUGCGAGUUCUGCUAUAUAUCUC [A13C U31C A56G A65G G73A],0.23

# Source: the RNAGym collection of RNA variant scans (doi:10.1093/nar/gkz1192)
